The source of these data is ChEMBL document CHEMBL1201862, “PubChem BioAssay data set” (2004).

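Values below derive from 48-hour exposures of cells grown in 96-well plates, with endpoints linearly interpolated between the two concentrations bracketing the appropriate inhibition level. GI50: concentration for 50% inhibition of growth.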 Activity calls are given as the source filed them. Cut-off read from the data, not from the text of the source: active = GI50 up to about 1.1 µM and inactive = higher.

The test system of the assay is NCI-H322M. Briefly: NCI tumour cell line growth inhibition, 48 h.
As to `CC(C)c1ccc2c(c1)CCC1C(C)(CN)CCCC21C` (centres undefined), the GI50 was inactive: 1.71 µM.
Regarding `Cc1c2ccccc2c(CSC(=N)N)c2ccccc12`, the GI50 was active: 0.217 µM.
The value for `O=C(O)Cc1ccc([N+](=O)[O-])cc1[N+](=O)[O-]` was inactive: > 100 µM; that for `OCCN(CCO)c1ccc2c(-c3ccccc3)cc(N(CCO)CCO)nc2n1` was inactive: > 100 µM; that for `COc1cccc(CCCNC(=O)Cc2cc(OC)c(OC)cc2CO)c1` was inactive: > 100 µM.
For the compound `O=C(COc1ccc(OCC(=O)N2C(=O)CS/C2=N\c2ccccc2)cc1)N1C(=O)CS/C1=N\c1ccccc1`, the GI50 is inactive: 19.9 µM.
To `COc1ccc(/C=N/n2c(C)n[nH]c2=O)c(OC)c1` belongs inactive: > 100 µM.
The value for `CC(C)(C)OC(=O)NCC(=O)NC1C/C(=N\O)c2sccc21` (centres undefined) was inactive: > 100 µM; that for `O=C1C2c3[nH]c4ccccc4c3[C@@H]3CCCCCCCCCCC3C2C(=O)N1c1ccccc1` (some centres undefined) was inactive: 90.8 µM; that for `C=C1CC2(C[C@@H](c3ccccc3)O[C@@H](c3ccccc3)C2)OC1=O` (some centres undefined) was inactive: 8.28 µM.
The value for `COc1cc(/C=C2\CCC(C)C3C2=NN(C(C)=O)C3c2cc(OC)c(OC)c(OC)c2)cc(OC)c1OC` (centres undefined) was inactive: > 52 µM; that for `O=C1c2cccc([N+](=O)[O-])c2C(=O)N1Cc1ccccc1` was inactive: > 100 µM.
For the compound `CCOc1cc(NC(C)=O)ccc1C(=O)NN1C(=O)CSC1c1ccccc1` (centres undefined), the GI50 was inactive: > 100 µM.
In the case of `O=c1[nH]c(=O)n(C2CC(O)C(CO)O2)cc1OCC1CCCCC1` (centres undefined), the GI50 is inactive: > 100 µM.
To `COc1c(C(C)C)cc2c3c1OC(=O)[C@@]31CCCC(C)(C)C1CC2` (some centres undefined) belongs inactive: 55.1 µM; to `COc1ccc(C(=O)O)c(Cc2ccc3ccccc3c2)c1`, inactive: > 100 µM.
`C#CC[C@@H]1C(=O)N(Cc2ccc(OC)cc2)[C@@H](C(C)C)C(=O)N1Cc1ccc(OC)cc1`: the GI50 is inactive: 59.3 µM.
To `Cc1ccc(S(=O)(=O)N(CCNC(=O)c2cccc(O)c2O)c2cc3c4c(c2)Oc2cccc5c2C4(C)c2c(cccc2O3)O5)cc1` belongs inactive: > 100 µM; to `O=c1[nH]nc(Cc2ccccc2)n1/N=C\c1ccccc1`, inactive: > 100 µM.
To `COc1cc2nc(-c3c(F)cccc3F)n(Cc3c(F)cccc3F)c2cc1Cc1c(F)cccc1F` belongs inactive: > 100 µM; to `C=CCOC(=O)CCCCCCCCCCCCCCCOC(=O)C1=C(CCC[C@@H](C)O[Si](C)(C)C(C)(C)C)NC(=O)N2[C@H](CC3(CC/C=C\[C@H](CC)O[Si](C(C)C)(C(C)C)C(C)C)OCCO3)CC[C@H]12`, inactive: > 100 µM; to `Cc1cc(/N=N/c2ccc(/N=N/c3c(O)c(S(=O)(=O)O)cc4cc(S(=O)(=O)O)ccc34)cc2C)ccc1/N=N/c1ccc2cc(S(=O)(=O)O)cc(S(=O)(=O)O)c2c1`, inactive: > 78.2 µM.
As for `CC(C)OP(=O)(OC(C)C)C(C)(C)O`, the GI50 was inactive: > 100 µM.
To `COC(=O)c1c[nH]c2nc(N3CCOCC3)nn2c1=O` belongs inactive: > 100 µM; to `N#C/C(=C\c1ccccc1)C(NO)Nc1ccccc1` (centres undefined), inactive: > 100 µM; to `Cc1ccc(N2C(=O)C3C=CC(n4[nH]c(=O)n(Cc5ccccc5)c4=O)CC3C2=O)cc1` (centres undefined), inactive: > 100 µM.
As for `CCCCCCCCCCNC(=S)OC`, the GI50 is inactive: > 100 µM.
To `Cc1nc(N)c(N2CCN(Cc3ccccc3)CC2)c(O)n1` belongs inactive: > 100 µM; to `Cc1nc2cc(F)c(F)cc2[nH]c1=O`, inactive: > 100 µM.
The value for `Nc1ccc(C(=O)NN2C(=O)C(Cl)C2c2cccc([N+](=O)[O-])c2)cc1` (centres undefined) was inactive: 15.3 µM; that for `CC1CCCc2c(C#N)c(N)nc(-c3ccc(Cl)cc3)c21` (centres undefined) was inactive: 19.8 µM.
`CC(C)(C)C(=O)C(CC(=O)c1ccccc1)C(=O)C(C)(C)C`: the GI50 is inactive: > 100 µM.
To `C=CCCCN1CCCCC1=S` belongs inactive: > 100 µM.
In the case of `C1=CC2C=CC(C=C1)P2c1ccccc1` (centres undefined), the GI50 is inactive: > 100 µM.
Regarding `CCN(CC)CCNc1ccc2nnn3c4ccc(OC(C)=O)cc4c(=O)c1c23`, the GI50 was inactive: 3.46 µM.
The value for `CCOC(=O)NC(=O)c1cn(CCN2CCN(c3ncnc4[nH]cnc34)CC2)c(=O)[nH]c1=O` was inactive: > 100 µM.
The value for `COc1ccc(Cc2c(-c3ccc(C)cc3)n[nH]c(=O)c2C2C(=O)N(c3ccccc3)N=C2c2ccccc2)cc1` (centres undefined) was inactive: 22.9 µM; that for `C=C1CC2CC(=O)C(O)C(C1)C2` (centres undefined) was inactive: > 100 µM.
To `C1CCC(N=C2N(C3CCCCC3)C(=NC3CCCCC3)N2C2CCCCC2)CC1` belongs inactive: > 100 µM.
Take `Cc1cc2[nH]c(=NS(=O)(=O)c3cc(C)c(Cl)cc3S)[nH]c2cc1C`: the GI50 is inactive: 40.1 µM.
The value for `O=C1N[C@H]2c3c(Cl)sc(Cl)c3[C@@H](O)[C@H]2O1` was inactive: > 100 µM; that for `O=[N+]([O-])c1ccccc1S(=O)(=O)N1CCCc2cc(Cl)ccc21` was inactive: 28 µM; that for `CN(C)CCN(C)CC1COC(C)(C)O1` (centres undefined) was inactive: > 100 µM.
The value for `O=[N+]([O-])c1cccc2nc3ccccc3c(NCCCCNc3c4ccccc4nc4cccc([N+](=O)[O-])c34)c12` was active: 0.113 µM; that for `CC(=O)OCC1OC(n2c(-c3ccc(C)cc3)cc(-c3ccco3)c(C#N)c2=S)C(OC(C)=O)C(OC(C)=O)C1OC(C)=O` (centres undefined) was inactive: > 100 µM.
As to `N#Cc1cccc(C2ON=C(c3ccc([N+](=O)[O-])cc3)N2C23CC4CC(CC(C4)C2)C3)c1` (centres undefined), the GI50 was inactive: > 100 µM.
On to `O=C1/C(=C/c2ccc(O)cc2)NC(=S)N1CN1CCCCC1`, for which the GI50 is inactive: > 100 µM.
In the case of `CCCCN(CCCC)C(=O)C(=O)C(C)C(=O)CC` (centres undefined), the GI50 was inactive: > 100 µM.
Consider `C=CCN(C(=O)CNC(=O)C(F)(F)F)c1cc(OCc2ccccc2)c2c(c1)c(C)cn2S(=O)(=O)c1ccccc1`, for which the GI50 is inactive: > 100 µM.
The value for `Clc1ccc2cccc3c2c1C1OC3c2ccccc21` (centres undefined) was inactive: > 100 µM; that for `NC(Cc1c2ccccc2cc2ccccc12)C(=O)O` (centres undefined) was inactive: 63.5 µM; that for `O=C1C(Cl)=C(N2CCSCC2)C(=O)c2c(O)ccc(O)c21` was active: 0.644 µM.
To `CCOC(=O)C(NC(=O)c1cccc(Cl)c1)(Nc1ccc(S(=O)(=O)Nc2cc(C)nc(C)n2)cc1)C(F)(F)F` (centres undefined) belongs inactive: > 100 µM; to `O=c1c2cc(Br)cc(Br)c2[nH]c(=S)n1-c1ccc(/N=N/c2ccc(O)c3cccnc23)cc1`, inactive: > 100 µM.
For `CN(C)CCCN1C(=S)N(CCCN(C)C)c2c3ccccc3nc3c([N+](=O)[O-])ccc1c23`, the GI50 is inactive: 6.55 µM.
The value for `CN(C)C(=S)/N=c1\ss/c(=N\S(=O)(=O)c2ccccc2)n1C` was inactive: > 100 µM; that for `CCOC1Oc2ccccc2-c2nc(N)ncc21` (centres undefined) was inactive: > 100 µM.
The value for `CCOC(=O)/C=C(/C(=O)OCC)n1cc(C)c(=O)n(Cc2cnnn2COCCOC(C)=O)c1=O` was inactive: > 100 µM.
To `Cc1ccc(C2=CC(=O)/C(=C\C(=O)c3ccc(Br)cc3)O2)c(C)c1` belongs inactive: 33.9 µM; to `COC(=O)C(CCCCCCCC(C(=O)OC)C1=Nc2nnc(N)n2C1=O)C1=Nc2nnc(N)n2C1=O` (centres undefined), inactive: > 100 µM.
Regarding `COc1ccc(-c2c3c(n(C4OC(CO)C(O)C(O)C4O)c(=S)c2C#N)CCCC3)cc1` (centres undefined), the GI50 was inactive: > 100 µM.
To `NC(=O)c1nc(-c2ccc(Cl)c(Cl)c2)nc2ccccc12` belongs inactive: > 30.3 µM; to `COc1cc(Cl)c2c3c(c(C(C)=O)oc13)CCC2`, inactive: > 100 µM.
The value for `CC(C)(CN1CCCCC1)C(=O)/C=C/c1c(Cl)cccc1Cl` was inactive: 1.97 µM; that for `CC1CCc2c(c(CC3CC(=O)NC(=O)C3)nn2-c2ccccc2)C1` (centres undefined) was inactive: > 100 µM; that for `CC(=O)OCc1ncccc1C(OC(C)=O)OC(C)=O` was inactive: > 100 µM.
To `COc1ccccc1NC(=O)CC(=O)N1N=C(C)C(/N=N/c2ccc(S(N)(=O)=O)cc2)C1=O` (centres undefined) belongs inactive: > 100 µM; to `ClC1c2ccccc2C2(c3ccccc3)OOC1(c1ccccc1)O2` (centres undefined), inactive: 5.18 µM.
Take `Nc1ncnc2c1ncn2C1OC(CSCC(F)(F)F)C(O)C1O` (centres undefined): the GI50 is inactive: > 100 µM.
Consider `CCCO/S(=N\S(=O)(=O)c1ccccc1)c1ccccc1[N+](=O)[O-]` (centres undefined), for which the GI50 was inactive: > 100 µM.
Regarding `COC(CNC(=O)C(C)NC(=O)C(C)NC(=O)c1ccccc1)OC` (centres undefined), the GI50 is inactive: > 100 µM.
The value for `Nc1ccccc1[S+]([O-])c1ccccc1` (centres undefined) was inactive: > 100 µM; that for `O=[N+]([O-])c1ccc2c(c1)Sc1ccccc1N2CCCCCl` was inactive: > 100 µM; that for `CC1(C)C(CBr)=[N+]([O-])C(C)(C)N1O` was inactive: > 10 µM.
Take `CCCCCCCCCCCCC(Br)C(=O)NCC(N)=O` (centres undefined): the GI50 is inactive: 14.8 µM.
The value for `COC1CC(N)(c2ccccc2)C(O)C(C)O1` (centres undefined) was inactive: > 100 µM.
For `[N-]=[N+]=N[C@H]1C[C@@H](CO)O[C@H]1n1cnc2c(N)ncnc21`, the GI50 is inactive: > 100 µM.
The value for `CN1CC[C@]23c4c5ccc(O)c4OC2c2[nH]ncc2C[C@H]3[C@H]1C5` (some centres undefined) was inactive: > 100 µM; that for `C=C(CCCCC)CN1CCCC1C(C)=O` (centres undefined) was inactive: 39.4 µM.
On to `COCC(=O)OC1CCn2c1nc1c2C(=O)C(C)=C(NC(C)=O)C1=O` (centres undefined), for which the GI50 was inactive: 18.5 µM.
To `Nc1ccc2[nH]c(C(=O)N3CC(CCl)c4c3cc(N)c3ccccc43)cc2c1` (centres undefined) belongs active: 0.0153 µM.
To `ONc1ncnc2[nH]cnc12` belongs inactive: > 100 µM; to `O=C(/C=C/c1ccccc1)CCN1CCOCC1`, inactive: 22.7 µM.
The value for `CN1C/C(=C\c2cccs2)C(=O)/C(=C/c2cccs2)C1` was inactive: 21 µM.
